The structures appear in SMILES notation. Screen size: about 310,000 compounds; about 2,200 (0.71%) showed an effect of 50% or more. Effects have a minus sign here. Some of the results follow.

human ether-à-go-go-related gene (hERG) potassium channel, sequence (Q12809 whole entry, looked up): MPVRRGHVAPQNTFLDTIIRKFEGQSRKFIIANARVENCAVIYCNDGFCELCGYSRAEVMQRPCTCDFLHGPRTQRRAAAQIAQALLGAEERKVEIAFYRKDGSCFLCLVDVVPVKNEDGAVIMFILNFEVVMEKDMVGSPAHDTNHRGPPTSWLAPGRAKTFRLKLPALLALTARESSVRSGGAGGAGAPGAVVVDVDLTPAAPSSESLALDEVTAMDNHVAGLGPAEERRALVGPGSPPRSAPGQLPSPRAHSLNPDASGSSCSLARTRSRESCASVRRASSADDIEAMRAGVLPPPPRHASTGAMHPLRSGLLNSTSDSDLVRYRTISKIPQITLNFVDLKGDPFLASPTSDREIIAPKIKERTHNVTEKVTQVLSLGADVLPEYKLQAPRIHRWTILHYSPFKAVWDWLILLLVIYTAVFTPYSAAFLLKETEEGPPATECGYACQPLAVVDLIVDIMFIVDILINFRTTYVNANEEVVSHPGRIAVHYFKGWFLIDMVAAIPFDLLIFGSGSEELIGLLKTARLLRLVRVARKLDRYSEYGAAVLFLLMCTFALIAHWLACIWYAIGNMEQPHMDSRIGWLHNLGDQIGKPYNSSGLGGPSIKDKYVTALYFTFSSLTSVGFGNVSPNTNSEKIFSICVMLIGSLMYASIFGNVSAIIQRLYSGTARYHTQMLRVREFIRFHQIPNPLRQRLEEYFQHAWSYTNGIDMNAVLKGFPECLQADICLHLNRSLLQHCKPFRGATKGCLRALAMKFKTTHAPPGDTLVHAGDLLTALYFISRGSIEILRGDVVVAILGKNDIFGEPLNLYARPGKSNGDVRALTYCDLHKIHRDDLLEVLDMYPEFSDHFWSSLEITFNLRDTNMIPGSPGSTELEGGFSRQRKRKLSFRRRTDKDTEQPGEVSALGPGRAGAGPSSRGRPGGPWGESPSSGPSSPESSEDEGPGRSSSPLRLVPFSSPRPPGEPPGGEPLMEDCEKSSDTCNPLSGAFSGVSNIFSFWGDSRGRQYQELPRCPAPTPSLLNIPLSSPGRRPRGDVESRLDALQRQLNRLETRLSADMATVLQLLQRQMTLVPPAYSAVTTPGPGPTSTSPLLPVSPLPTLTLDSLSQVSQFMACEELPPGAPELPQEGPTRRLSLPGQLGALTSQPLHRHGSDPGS

This experiment concerns the target human ether-à-go-go-related gene (hERG) potassium channel (human, UniProt Q12809). Briefly: primary screen, population patch clamp on CHO cells stably expressing hERG.
Take `CC(C)CCNC(=O)CSc1nc2ccccc2s1`: the “hERG current change (%, negative = inhibition) at 1uM” value came to 13.9%.

`COc1ccc(OC)c(S(=O)(=O)N2CCC(C(=O)NCCC3=CCCCC3)CC2)c1`: the “hERG current change (%, negative = inhibition) at 1uM” value worked out at 0.368%.

Turning to `N#Cc1ccccc1NC(=S)NC(=O)c1cccnc1`, the “hERG current change (%, negative = inhibition) at 1uM” value amounted to 12.1%.

For the molecule `CCCCn1c(N)c(N(C)C(=O)c2ccc(-n3cccn3)cc2)c(=O)[nH]c1=O`, the “hERG current change (%, negative = inhibition) at 1uM” value came out at 6.43%.

As to `CC(=O)c1ccc(NC(=O)CSc2ccc(-c3ccc(-n4cccn4)cc3)nn2)cc1`, the “hERG current change (%, negative = inhibition) at 1uM” value is reported as -17.2%.

For the molecule `O=C(c1ccccc1)N1CCN(C(=O)N2CCOCC2)CC1`, the “hERG current change (%, negative = inhibition) at 1uM” value came out at 23.6%.

With `CCOC(=O)c1[nH]c2ccc(OC)cc2c1NC(C)=O`, the “hERG current change (%, negative = inhibition) at 1uM” value is reported as 3.16%.

Turning to `Cc1ccc(NC(=O)C(C)N2C(=O)C3CC=C(Cl)CC3C2=O)cc1` (stereo not drawn), the “hERG current change (%, negative = inhibition) at 1uM” value is recorded as 5.34%.

In the case of `COc1ccc(NC(=O)CSc2nnc(-c3ccco3)c(-c3ccco3)n2)cc1OC`, the “hERG current change (%, negative = inhibition) at 1uM” value worked out at 10.4%.

`CC(Sc1nnc2c(n1)C1(C)CCC2C1(C)C)C(=O)Nc1ccccc1` (stereo not drawn): the “hERG current change (%, negative = inhibition) at 1uM” value is recorded as -1.46%.

On to `CCOC(=O)C1=C(N)Oc2cc(O)ccc2C1c1cccnc1` (stereo not drawn), for which the “hERG current change (%, negative = inhibition) at 1uM” value was 6.7%.

As for `COc1ccc2sc3ccccc3c(=O)c2c1OC`, the “hERG current change (%, negative = inhibition) at 1uM” value was determined as 19%.

In the case of `CC(=O)Nc1ccc(C(=O)Nc2nc(-c3cccnc3)cs2)cc1`, the “hERG current change (%, negative = inhibition) at 1uM” value stood at 5.99%.

On to `Cc1ccc(CCNC(=O)c2nnn(-c3cc(C)cc(C)c3)c2N)cc1`, for which the “hERG current change (%, negative = inhibition) at 1uM” value stood at 8.01%.

Turning to `COc1ccccc1CC(=O)Nc1ccc(C(=O)N2CCCCC2)cc1`, the “hERG current change (%, negative = inhibition) at 1uM” value stood at 10.6%.

For `Cc1cc(C(=O)CS(=O)c2ccc(F)cc2)cc(C)c1OC(=O)N(C)C` (stereo not drawn), the “hERG current change (%, negative = inhibition) at 1uM” value is listed as 14.3%.

In the case of `O=C(NC1CS(=O)(=O)CC1NCc1ccccc1)c1ccccc1` (stereo not drawn), the “hERG current change (%, negative = inhibition) at 1uM” value is reported as 10.4%.

Take `O=C(CCCn1cnc([N+](=O)[O-])n1)Nc1ccc(Cl)cc1Cl`: the “hERG current change (%, negative = inhibition) at 1uM” value is listed as -7.13%.

Take `CCOc1ccc(C2CC(c3cccc(Cl)c3)n3nc(N)nc3N2)cc1` (stereo not drawn): the “hERG current change (%, negative = inhibition) at 1uM” value came to 11.5%.

On to `CN(C)c1cc2c(cc1NS(=O)(=O)c1ccccc1)n(C)c(=O)n2C`, for which the “hERG current change (%, negative = inhibition) at 1uM” value is recorded as 11.2%.

On to `O=S(=O)(Cc1ccc(Cl)cc1)N1CCN(c2ncccn2)CC1`, for which the “hERG current change (%, negative = inhibition) at 1uM” value turned out to be 4.96%.

With `CC(NC(=O)CN1C(=O)NC(Cc2ccccc2)(Cc2ccccc2)C1=O)C12CC3CC(CC(C3)C1)C2` (stereo not drawn), the “hERG current change (%, negative = inhibition) at 1uM” value is recorded as 6.65%.

For `Cc1ccc(S(=O)(=O)N2CCOCC2)cc1C(=O)OCC(=O)Nc1ccc2c(c1)OCO2`, the “hERG current change (%, negative = inhibition) at 1uM” value is 10.7%.

With `O=C1NC(Cc2ccccc2)C(=O)N1CC(=O)N1CCCc2ccccc21` (stereo not drawn), the “hERG current change (%, negative = inhibition) at 1uM” value was determined as 5.14%.

(Values after article PMC4336329 (PLoS ONE, 2015).)
